Results as given in PubChem BioAssay AID485281 (National Center for Advancing Translational Sciences (NCATS), 2010).
About 260 (0.074%) of roughly 350,000 compounds were called active. The shares of active, inactive and inconclusive entries below differ from those in the screen. Calls follow the shape of the dose curve; as a rule, active = well fitted inhibition curve with a large enough effect; inconclusive = small, poorly fitted or top-dose-only effect; inactive = no such curve, though single readings can be large or run the other way. Potencies of inconclusive entries are doubtful fits and often do not repeat.

These molecules were tested against Ferritin light chain (Equus caballus) (UniProt P02791) (assay: qHTS Assay for Identification of Novel General Anesthetics). Conditions: apoferritin/1-aminoanthracene competitive binding, fluorescence; series mostly up to 77.5 µM.
Sequence of UniProt P02791 (P02791 whole entry, looked up): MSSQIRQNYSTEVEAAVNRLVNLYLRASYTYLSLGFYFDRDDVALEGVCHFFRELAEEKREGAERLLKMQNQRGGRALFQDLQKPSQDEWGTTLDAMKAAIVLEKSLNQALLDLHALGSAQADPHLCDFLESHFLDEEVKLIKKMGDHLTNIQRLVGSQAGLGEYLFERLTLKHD
Method in brief: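 Steps: apoferritin (10 uM) was premixed with half-saturated 1-AMA in PBS, compounds were pin-transferred, plates stood 10 min at room temperature, fluorescence was read at 380/535 nm, and curves were fitted with a Hill equation.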
Also: nearly all actives have a fitted effect of over 20% in size.
Potency is read from the fitted curve at half-maximal effect; tags tell the direction and shape of the fitted curve.

Row | Structure (SMILES) | Potency
1 | O=C(CCC(=O)Nc1ccc(Cl)cc1Cl)N/N=C/c1ccc([N+](=O)[O-])o1 | inconclusive: 12.6 µM [inhibitor, partial curve]
2 | N#CC1CC(c2ccccc2)=NN1c1ccccc1[N+](=O)[O-] (stereo not given) | inconclusive: 28.2 µM [inhibitor, single point]
3 | CC1CCCC(NC(=O)c2ccc3c(c2)N(Cc2ccccc2)C(=O)CS3=O)C1C (stereo not given) | inconclusive: 15.8 µM [inhibitor, single point]
4 | CN(c1ccccc1)S(=O)(=O)c1ccc(NC(=S)NC(=O)c2ccccc2)cc1 | inactive
5 | CCC(CO)[n+]1c(C)cc(/C=C2\Sc3ccccc3N2Cc2ccccc2)cc1C (stereo not given) | inconclusive: 14.1 µM [inhibitor, single point]
6 | COc1ccccc1C(=O)NC(=O)Nc1cccc(Cl)c1 | inactive
7 | c1ccc(OCc2nc3ccccc3[nH]2)cc1 | inactive
8 | CCN(CC)c1ccc2c(Cl)c(Br)c(=O)oc2c1 | inactive
9 | N#Cc1ccccc1NCc1ccccc1 | inconclusive: 8.91 µM [inhibitor, partial curve]
10 | COc1ccc(OCC(=O)Nc2nnc(S(=O)(=O)N3CCCCCC3)s2)cc1 | inconclusive: 4.47 µM [inhibitor, partial curve]
11 | C/C(CCc1ccc2c(c1)OCO2)=N\N=C(/N)SC1CC(=O)N(c2ccc(Cl)cc2)C1=O (stereo not given) | inconclusive: 31.6 µM [inhibitor, partial curve]
12 | COc1ccccc1C(=O)Nc1ccc2c(c1)nc1n2CCN(Cc2ccccc2)C1 | inconclusive: 11.2 µM [inhibitor, partial curve]
13 | Cc1ccc(S(=O)(=O)n2nc(OC(=O)C(C)(C)C)cc2N)cc1 | inconclusive: 7.94 µM [inhibitor, partial curve]
14 | Cc1c(C(=S)Nc2ccccc2)cnn1-c1ccccc1 | inactive
15 | CCOc1cc(C2C(C(=O)OC)=C(C)NC3=C2C(=O)c2ccccc23)ccc1O (stereo not given) | inconclusive: 28.2 µM [inhibitor, partial curve]
16 | CC1=C(C#N)C(c2cccnc2)C2=C(N1)c1ccccc1C2=O (stereo not given) | inactive
17 | Cc1nn(-c2ccccc2)c(Cl)c1/C=C1\SC(=S)NC1=O | inconclusive: 56.2 µM [inhibitor, single point]
18 | CC1=C(C(=O)N2CCc3ccccc32)C2(CCC(C)CC2)OC1=O (stereo not given) | inconclusive: 25.1 µM [inhibitor, partial curve]
19 | COCCN(CCOC)C(=O)c1c[nH]c2ccc(S(=O)(=O)N(C)c3ccc(F)cc3)cc2c1=O | inactive
20 | CC1=C(OC(=O)c2ccccc2)C(C)(C)C(c2ccc(Br)cc2)OC1=O (stereo not given) | inconclusive: 3.16 µM [inhibitor, partial curve, poor fit]
21 | CCOC(=O)c1ccc(-n2c(N)c(C(=O)OC)c3nc4ccccc4nc32)cc1 | inactive
22 | O=C1c2ccccc2C(=O)N1c1ncc(Cc2ccc(Cl)cc2)s1 | inconclusive: 35.5 µM [inhibitor, single point]
23 | Cc1ccc(N2C(S)=C(C#N)C(=O)NC2c2cccs2)cc1 (stereo not given) | inactive
24 | Cc1ccc(-c2nc(C)c(CCNC(=O)C(=O)Nc3ccc4c(c3)OCCO4)s2)cc1 | inactive

Row | Structure (SMILES) | Potency
25 | Cc1ccc(Cl)c(OCC(=O)N2CCc3ccccc3C2)c1 | inconclusive: 15.8 µM [inhibitor, partial curve]
26 | O=C1c2ccccc2C(=O)N1OCc1ccccc1[N+](=O)[O-] | inconclusive: 25.1 µM [inhibitor, single point]
27 | Nc1cc(OC(=O)c2ccccc2Br)nn1S(=O)(=O)c1ccccc1 | inconclusive: 35.5 µM [inhibitor, partial curve]
28 | C/C(CC(=O)Nc1ccc(Cl)c(C(F)(F)F)c1)=N\NC(=O)c1cc2ccccc2cc1O | inconclusive: 28.2 µM [inhibitor, partial curve]
29 | O=C(NCC(c1ccc2c(c1)OCO2)N1CCN(c2ccccc2)CC1)c1ccccc1F (stereo not given) | inactive
30 | Cc1ccc(-c2nnc(-c3ccccc3)c(-c3ccccc3)n2)cc1 | inactive
31 | COc1ccc(C(=O)c2coc3ccc(O)c(CN(C)C)c23)cc1 | inconclusive: 22.4 µM [inhibitor, partial curve]
32 | COc1cc2cc(C(=O)N3CCOCC3)cc(-c3ccc(C)cc3)c2cc1OC | inactive
33 | C[C@@H]1O[C@@H](Oc2c(-c3cc(O)c(O)c(O)c3)oc3cc(O)cc(O)c3c2=O)[C@H](O)[C@H](O)[C@H]1O | inactive
34 | CCCCCCCCn1c2c(c(=N)c3c1CCC3)CCCC2 | inconclusive: 25.1 µM [inhibitor, partial curve]
35 | CCOC(=O)C1=C(COC(=O)C2(C)CC2(Cl)Cl)NC(=O)NC1c1ccccc1 (stereo not given) | inconclusive: 28.2 µM [inhibitor, partial curve]
36 | O=[N+]([O-])c1ccc(S(=O)(=O)N2CCN(c3ccnc4cc(Cl)ccc34)CC2)cc1 | inactive
37 | Cc1ccc(S(=O)(=O)Nc2nc(C)c(NC(=O)Nc3ccc(Cl)cc3Cl)s2)cc1 | inconclusive: 44.7 µM [inhibitor, single point]
38 | CC(=O)Nc1ccc(S(=O)(=O)NCC(=O)OCC(=O)N2CCc3ccccc32)cc1 | inconclusive: 35.5 µM [inhibitor, partial curve]
39 | CCCCCC(=O)c1ccc(O)cc1O | inconclusive: 31.6 µM [inhibitor, partial curve]
40 | COC(=O)Nc1sc2c(c1C(=O)NC1CC1)CCCCCC2 | inconclusive: 35.5 µM [inhibitor, single point]
41 | O=C(CCc1ccccc1)NC(NC(=S)Nc1ccc(Cl)cc1)C(Cl)(Cl)Cl (stereo not given) | inactive
42 | N/C(Cc1ccc([N+](=O)[O-])cc1)=N\OC(=O)CC1CCCCC1 | inconclusive: 11.2 µM [inhibitor, partial curve]
43 | Cc1ccc(SCC(=O)NCCC2=CCCCC2)cc1 | inconclusive: 25.1 µM [inhibitor, partial curve]
44 | Cc1cccc2nc(-c3cccnc3)c(Nc3ccc(C(C)C)cc3)n12 | inactive
45 | CCOC(=O)c1[nH]c(COC(=O)c2ccccc2NC(=O)c2ccco2)c(C(=O)OCC)c1C | inconclusive: 14.1 µM [inhibitor, partial curve]
46 | CC(=O)c1cc(C#N)c(SCC(=O)OC(C)(C)C)nc1C | inconclusive: 11.2 µM [inhibitor, partial curve]
47 | CCOc1ccccc1NC(=O)CCc1nnc2ccc(N3CCC(C)CC3)nn12 | inconclusive: 31.6 µM [inhibitor, partial curve]
48 | Cc1[nH]n(-c2ccccc2)c(=O)c1C1(C(F)(F)F)C(=O)N(c2ccc(F)cc2)C2=C1C(=O)CC(C)(C)C2 (stereo not given) | inactive

Row | Structure (SMILES) | Potency
49 | COc1ccccc1/C=N/Nc1nccnc1Cl | inactive
50 | Cc1ccc2c(c1)sc1nc(=O)n(-c3ccc(Cl)cc3)c(=O)n12 | inactive
51 | O=C1NC(=O)C2C1C(c1ccc([N+](=O)[O-])cc1)=NN2Cc1ccccc1 (stereo not given) | inconclusive: 17.8 µM [inhibitor, partial curve]
52 | O=C(C[n+]1cc(-c2ccccc2)n2c1CCC2)Nc1nc(-c2ccc(F)cc2)cs1 | inconclusive: 28.2 µM [inhibitor, partial curve]
53 | CCCCCCC(=O)Oc1ccc(N2C(=O)CCC2=O)cc1 | inconclusive: 7.08 µM [inhibitor, partial curve]
54 | COc1ccc(N(CC(=O)NCCC2=CCCCC2)S(C)(=O)=O)cc1 | inconclusive: 56.2 µM [inhibitor, single point]
55 | Cc1ccc(CNC(=O)c2ccc(CS(=O)Cc3ccccc3Cl)o2)cc1 (stereo not given) | inconclusive: 25.1 µM [inhibitor, partial curve]
56 | COc1ccc(-c2cc(C)no2)cc1S(=O)(=O)NCc1ccc(OC(C)C)cc1 | inconclusive: 25.1 µM [inhibitor, partial curve]
57 | O=C(CSc1ccccn1)Nc1ccc(Cl)c([N+](=O)[O-])c1 | inconclusive: 25.1 µM [inhibitor, partial curve]
58 | Cc1cccc(Nc2nnc(-n3nc(C)cc3C)c3ccccc23)c1 | inconclusive: 56.2 µM [inhibitor, single point]
59 | Cc1c(-c2nsc(NC(=O)c3ccc(Cl)cc3)n2)nnn1-c1ccc(C(C)C)cc1 | inactive
60 | O=C(c1cc(-c2ccc(Cl)cc2Cl)on1)N1CCCCCC1 | inconclusive: 31.6 µM [inhibitor, single point]
61 | O=C(c1cccc(OC2CCN(C3CCCC3)CC2)c1)N1CCCCCCC1 | inconclusive: 31.6 µM [inhibitor, partial curve]
62 | COC(=O)c1sccc1NC(=O)CNC(=O)c1ccccc1 | inactive
63 | COc1ccc(OC)c(C2CC(=O)N3CN(c4ccccc4F)CSC3=C2C#N)c1 (stereo not given) | inconclusive: 39.8 µM [inhibitor, single point]
64 | Cc1nc([N+](=O)[O-])c(N2CCN(Cc3ccccc3)CC2)n1Cc1ccccc1 | inconclusive: 50.1 µM [inhibitor, single point]
65 | CC(C)Oc1ccc(CNC(=O)c2ccc3nc(N4CCOCC4)sc3c2)cc1 | inconclusive: 50.1 µM [inhibitor, single point]
66 | CN(C)CCCC(=O)c1ccc2c(c1)OCO2 | inactive
67 | O=C(NC1CCCCC1)c1ccc(NS(=O)(=O)c2cccc3cccnc23)cc1 | inconclusive: 11.2 µM [inhibitor, partial curve]
68 | CCC(=O)N(Cc1ccco1)Cc1cc2cccc(C)c2n2nnnc12 | inactive
69 | C=CCNC(=S)NNC(=O)COc1cccc(Cl)c1 | inconclusive: 28.2 µM [inhibitor, partial curve]
70 | CC1CCCC(n2c(=S)[nH]c3ccccc3c2=O)C1C (stereo not given) | inconclusive: 35.5 µM [inhibitor, partial curve]
